This passage reports binding results from paper PMC8531446, “Light-triggered and phosphorylation-dependent 14-3-3 association with NON-PHOTOTROPIC HYPOCOTYL 3 is required for hypocotyl phototropism” (Nature Communications, 2021).

Results are given in words; binding and its absence hold for the method and conditions named. Tags and fused reporters may be left off the sequences shown.

This test concerns the target T1, GFP:NPH3-S744A from N. benthamiana (Arabidopsis thaliana) (UniProt Q9FMF5).
T1 sequence: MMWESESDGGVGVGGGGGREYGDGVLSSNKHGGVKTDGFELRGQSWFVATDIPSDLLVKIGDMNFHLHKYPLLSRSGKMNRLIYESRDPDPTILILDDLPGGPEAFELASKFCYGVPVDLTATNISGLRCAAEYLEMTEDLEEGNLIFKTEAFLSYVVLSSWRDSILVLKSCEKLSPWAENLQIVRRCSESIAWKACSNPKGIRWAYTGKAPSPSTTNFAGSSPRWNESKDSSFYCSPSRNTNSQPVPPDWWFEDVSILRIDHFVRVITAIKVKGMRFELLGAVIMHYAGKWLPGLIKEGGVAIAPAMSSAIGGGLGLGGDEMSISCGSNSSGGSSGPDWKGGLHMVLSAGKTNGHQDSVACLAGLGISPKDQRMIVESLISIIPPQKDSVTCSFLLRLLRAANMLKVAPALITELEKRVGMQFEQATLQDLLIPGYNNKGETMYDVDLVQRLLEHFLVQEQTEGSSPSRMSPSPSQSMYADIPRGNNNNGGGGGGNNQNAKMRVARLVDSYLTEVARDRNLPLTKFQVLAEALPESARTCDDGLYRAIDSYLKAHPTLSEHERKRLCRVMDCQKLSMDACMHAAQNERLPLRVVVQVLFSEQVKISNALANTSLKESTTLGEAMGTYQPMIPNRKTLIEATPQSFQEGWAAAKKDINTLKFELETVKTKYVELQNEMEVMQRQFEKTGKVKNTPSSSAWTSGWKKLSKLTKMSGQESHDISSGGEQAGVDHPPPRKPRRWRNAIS
The experiment in a line: far-Western, overlay or dot blot; anti-GFP immunoprecipitates from blue-light-treated N. benthamiana leaves (10 μmol m^-2 s^-1, 40 min) or Arabidopsis nph3-7 seedlings (1 μmol m^-2 s^-1) separated by SDS-PAGE, on nitrocellulose; overlaid with RGS(His)6-14-3-3 omega at 20 μg ml^-1 in 50 mM MOPS pH 6.5, 20% glycerol, 5 mM MgCl2, 2 mM DTT, overnight at 4 °C; anti-RGS(His)6 detection; both purified.

B1: RGS(His)6-tagged Arabidopsis 14-3-3 isoform omega (natural protein, UniProt Q01525 1-259, looked up)
chain: MASGREEFVYMAKLAEQAERYEEMVEFMEKVSAAVDGDELTVEERNLLSVAYKNVIGARRASWRIISSIEQKEESRGNDDHVTAIREYRSKIETELSGICDGILKLLDSRLIPAAASGDSKVFYLKMKGDYHRYLAEFKTGQERKDAAEHTLAAYKSAQDIANAELAPTHPIRLGLALNFSVFYYEILNSPDRACNLAKQAFDEAIAELDTLGEESYKDSTLIMQLLRDNLTLWTSDMQDDAADEIKEAAAPKPTEEQQ
notes: 14-3-3 isoform omega, Arabidopsis; cDNA in the expression vector pQE-30; also called purified recombinant 14-3-3 proteins; RGS(His)6-tagged 14-3-3; source: E. coli M15, purified (Ni2+-NTA agarose, native conditions)
Turning to B1, the binding result is “no binding (tested: 20 μg ml^-1)”.
